Experimental data: paper PMC7035337
Results are given in words; binding and its absence hold for the method and conditions named. Some results given as binding are weak or reduced against the parent protein; the word gives no strength.

By UniProt entry, the sequences of proteins in these tests, tags left out.
UniProt P08670: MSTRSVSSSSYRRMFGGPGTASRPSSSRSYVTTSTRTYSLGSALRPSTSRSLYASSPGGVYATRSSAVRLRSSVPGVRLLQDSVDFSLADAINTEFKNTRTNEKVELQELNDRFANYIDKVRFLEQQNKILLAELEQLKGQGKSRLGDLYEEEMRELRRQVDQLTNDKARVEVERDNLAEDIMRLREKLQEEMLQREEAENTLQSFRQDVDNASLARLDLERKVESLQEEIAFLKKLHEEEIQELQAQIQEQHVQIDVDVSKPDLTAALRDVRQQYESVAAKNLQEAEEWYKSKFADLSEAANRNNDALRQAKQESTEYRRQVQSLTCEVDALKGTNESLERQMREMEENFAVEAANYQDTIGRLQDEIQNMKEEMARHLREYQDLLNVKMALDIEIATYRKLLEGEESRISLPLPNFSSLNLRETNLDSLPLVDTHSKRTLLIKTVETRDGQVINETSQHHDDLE

Experiments:
Test in all cases: NMR titration; 15N-HSQC peak intensities of 100 µM 15N-labelled linker after adding unlabelled vimentinFL (200 µM in Supplementary Figure 8); 20 mM Tris-Cl pH 7.0, 1 mM DTT, no salt; 298 K; both purified
[1] = target: periplakin linker domain R1655E/R1656E (human) (UniProt O60437)
[2] = target: T1, periplakin linker domain, wild-type (residues K1646-K1756) (human)
T1 sequence: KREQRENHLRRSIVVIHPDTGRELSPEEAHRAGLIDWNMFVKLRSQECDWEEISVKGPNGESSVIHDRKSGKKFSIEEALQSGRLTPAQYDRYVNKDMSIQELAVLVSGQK

[3] = target: T2, desmoplakin linker domain, wild-type (residues Q2454-N2565) (human)
T2 sequence: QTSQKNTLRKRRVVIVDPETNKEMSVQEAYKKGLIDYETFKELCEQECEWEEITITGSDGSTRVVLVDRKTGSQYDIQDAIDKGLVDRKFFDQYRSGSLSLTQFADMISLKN

full-length vimentin (vimentinFL, residues M1-E466) (from UniProt P08670 1-466)
binding [1]: no binding (tested: 200 µM vimentinFL with 100 µM linker) | binding [2]: binds | binding [3]: binds
